In all, about 340,000 compounds went through this assay and about 12,000 (3.5%) were called active. This list was built around the results that the source calls inconclusive (neither active nor inactive); the mix of calls is not that of the screen. The call rests on the fitted dose curve; in most records, active means well fitted inhibition curve with a large enough effect; inconclusive means small, poorly fitted or top-dose-only effect, or another doubt; inactive means no such curve, though single readings can be large or run the other way. Potencies of inconclusive entries are left out as doubtful fits.
assay: qHTS Assay for Inhibitors of Hepatitis C Virus (HCV); conditions: Huh7.5.1 HCVcc-Cre (HCVcc is cell-culture hepatitis C virus) infection, luciferase reporter, 44 h; activity change, negative = inhibition: at 41.8 µM (top of the series) unless noted
Method in brief: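 Infectious HCVcc-Cre (~0.5 moi) was added to cells just after compound, with cells seeded 4 h earlier at 1,000 per well. Luciferase activity after 44 h culture reported infection; substrate was incubated 15 min at room temperature before reading.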
On the % scale 0 is the no-effect control and ±100 the full control effect; potency means the concentration at half of the fitted maximal effect; tags describe the fitted curve by direction and shape.

Which Potency does the source give for `COc1ccccc1N1CCN(CC(=O)Nc2ccc(CN3CCCCC3)cc2)CC1` here?
Its Potency is inconclusive [inhibitor, single point].

With `COc1ccc(N2CCN(C(=O)c3ccc(NS(=O)(=O)c4cccs4)cc3)CC2)cc1` as the compound, how does the “activity change, negative = inhibition” value read?
The value was inactive: -10.6%.

For `O=C(O)C1CC=CCC1C(=O)N1CCN(c2nc(-c3ccccc3Cl)c3cc(Br)ccc3n2)CC1` (stereo unspecified), which Potency is on record?
The Potency was inconclusive [inhibitor, single point].

With `COc1ccc(-c2csc3ncnc(N4CCN(S(=O)(=O)c5cccs5)CC4)c23)cc1` as the compound, how does the Potency read?
The Potency was active: 8.91 µM.

For `c1ccc(CNc2nc(-c3cccs3)nc3ccccc23)cc1`, which Potency is on record?
Its Potency is inconclusive [inhibitor, single point].

With `Cc1ccc(NS(=O)(=O)c2cccc(C(=O)NCC(c3ccco3)N3CCCC3)c2)cc1` (stereo unspecified) as the compound, how does the Potency read?
Its Potency is inconclusive [inhibitor, single point].

For `CCCC(=O)NC(c1ccccc1)c1c(O)ccc2ccccc12` (stereo unspecified), which Potency is on record?
Its Potency is inconclusive [inhibitor, single point].

With `Clc1ccc(Cn2c(/C=C/c3ccco3)nc3ccccc32)cc1` as the compound, how does the Potency read?
The Potency was inconclusive [inhibitor, single point].

For `Cc1nc(-c2cccc(NS(C)(=O)=O)c2)cs1`, which “activity change, negative = inhibition” value is on record?
The value was inactive: -7.29%.

With `Cc1ccccc1-c1nc(CS(=O)CC(=O)NC2CC2)c(C)o1` (stereo unspecified) as the compound, how does the Potency read?
Its Potency is inconclusive [inhibitor, partial curve].

With `COc1cc(/C=C2\SC(=S)N(NS(=O)(=O)c3ccc(C)cc3)C2=O)ccc1O` as the compound, how does the “activity change, negative = inhibition” value read?
Its value is inactive: 6.72%.

For `Cc1ccc(S(=O)(=O)N2CCOCC2)cc1C(=O)NNC(=O)c1ccoc1C`, which “activity change, negative = inhibition” value is on record?
The value was inactive: 10.5%.

For `COc1cc(CNCCc2c[nH]c3ccccc23)cc(OC)c1`, which Potency is on record?
Its Potency is inconclusive [inhibitor, single point].

For `Cc1c(CC(=O)N[C@@H](C)C(=O)O)c(=O)oc2cc3c(cc12)CCC(C)(C)O3`, which “activity change, negative = inhibition” value is on record?
Its value is inactive: 13.8%.

With `CCOc1ccccc1NC(=S)NC(=O)C1CCCCC1` as the compound, how does the Potency read?
Its Potency is inconclusive [inhibitor, single point].

Which “activity change, negative = inhibition” value does the source give for `CC(/C=N/NC(=O)c1cccs1)=C\c1ccco1` here?
The value was inactive: -21.3%.

For `CC(C(=O)Nc1ccc(Cl)cc1Cl)N1CC=C(c2ccccc2)CC1` (stereo unspecified), which Potency is on record?
The Potency was inconclusive [inhibitor, single point].

For `CCOc1cc(C=O)c(Br)cc1OC1CCCC1`, which “activity change, negative = inhibition” value is on record?
The value was inactive: -26.1%.

With `CC1CCCN(C(=O)CN(c2ccccc2)S(=O)(=O)c2ccc(F)cc2)C1` (stereo unspecified) as the compound, how does the “activity change, negative = inhibition” value read?
The value was inactive: 5.31%.

With `CCOC(=O)N1CCC(NS(=O)(=O)c2ccc3c(c2)CCN3C(C)=O)CC1` as the compound, how does the Potency read?
The Potency was inconclusive [inhibitor, single point].

Which Potency does the source give for `c1ccc(-c2n[nH]nc2-c2ccccc2)cc1` here?
Its Potency is inconclusive [inhibitor, single point].

With `O=P(COCCCCCOCP(=O)(c1ccccc1)c1ccccc1)(c1ccccc1)c1ccccc1` as the compound, how does the Potency read?
Its Potency is inconclusive [inhibitor, single point].

For `O=C(CC1SC(=Nc2ccc(OC(F)F)cc2)N(CCC2=CCCCC2)C1=O)Nc1ccccc1F` (stereo unspecified), which “activity change, negative = inhibition” value is on record?
Its value is inactive: -5.09%.

For `Cn1c(NCc2ccccc2)nc2c1c(=O)n(Cc1ccc(Br)cc1)c(=O)n2C`, which Potency is on record?
The Potency was inconclusive [inhibitor, single point].

With `Cc1cccc(NC(=O)c2ccccc2NC(=O)c2ccco2)c1` as the compound, how does the Potency read?
Its Potency is inconclusive [inhibitor, partial curve].

Which Potency does the source give for `CN(C1CCCCC1)S(=O)(=O)c1ccc(SCC(=O)C(C)(C)C)nc1` here?
The Potency was inconclusive [inhibitor, single point].

With `O=C(Nc1sc2c(c1-c1nc3ccccc3[nH]1)CCCC2)C1CC1` as the compound, how does the Potency read?
The Potency was inconclusive [inhibitor, full curve].

Which Potency does the source give for `Nc1nc(-c2ccc3c(c2)OCCO3)cs1` here?
Its Potency is inconclusive [inhibitor, partial curve].

For `CCCn1c(CN2CCN(c3cccc(Cl)c3)CC2)nc2c1c(=O)n(C)c(=O)n2C`, which Potency is on record?
Its Potency is inconclusive [inhibitor, partial curve].

With `COc1ccc(Cl)cc1S(=O)(=O)N1CCC(C(=O)NCc2ccccn2)CC1` as the compound, how does the “activity change, negative = inhibition” value read?
The value was inactive: 20.8%.

Which Potency does the source give for `COc1ccc(-c2cc(C(F)(F)F)nc(S(=O)(=O)CCCC(=O)Nc3cccnc3Cl)n2)cc1OC` here?
The Potency was inconclusive [inhibitor, single point].

For `O=C(CC1Oc2ccccc2NC1=O)NCCCN1CCN(Cc2ccccc2)CC1` (stereo unspecified), which Potency is on record?
The Potency was inconclusive [inhibitor, single point].

Which “activity change, negative = inhibition” value does the source give for `CCNC(=O)COC(=O)c1cc(-c2ccco2)nc2ccccc12` here?
The value was inactive: 11.4%.

For `C/C(=N\NC(=O)c1ccccc1OCc1ccc(F)cc1)c1ccccn1`, which Potency is on record?
Its Potency is active: 2.82 µM.

With `FC(F)(F)C1=CC(c2ccc(Cl)cc2)=NCCN1` as the compound, how does the “activity change, negative = inhibition” value read?
The value was inactive: -10.8%.

For `COC(=O)c1sc(NC(=O)COc2c(C)cccc2C)nc1C`, which Potency is on record?
Its Potency is inconclusive [inhibitor, partial curve].

For `Cc1ccc(/C=N/NC(=O)c2ccc(-c3ccccc3)cc2)o1`, which Potency is on record?
The Potency was inconclusive [inhibitor, partial curve].

For `CC(OC(=O)c1ccccc1Nc1ccc(SC(F)F)cc1)C(N)=O` (stereo unspecified), which Potency is on record?
The Potency was inconclusive [inhibitor, partial curve].

Which Potency does the source give for `CCOC(=O)c1sc(NC(=O)CC2OC(=O)c3ccccc32)nc1C` (stereo unspecified) here?
Its Potency is inconclusive [inhibitor, partial curve].

With `Cc1ccc(C(C)C)cc1S(=O)(=O)NC1CC(C)(C)NC(C)(C)C1` as the compound, how does the “activity change, negative = inhibition” value read?
Its value is inactive: -17.7%.

With `COc1cc([N+](=O)[O-])ccc1NC(=O)COC(=O)c1n[nH]c2ccccc12` as the compound, how does the Potency read?
The Potency was inconclusive [inhibitor, partial curve].

With `O=C(/C=C/c1ccc(OC(F)F)cc1)Nc1cccc(S(=O)(=O)N2CCOCC2)c1` as the compound, how does the Potency read?
The Potency was active: 5.62 µM.

For `COC(=O)c1ccc(CN2CCC(Oc3cccc(C(=O)N4CCCC4)c3)CC2)cc1`, which Potency is on record?
Its Potency is inconclusive [inhibitor, partial curve].

For `Cc1sc2ncn(CC(=O)Nc3cccc(S(N)(=O)=O)c3)c(=O)c2c1-c1ccccc1`, which “activity change, negative = inhibition” value is on record?
Its value is inactive: -3.37%.

Which Potency does the source give for `COc1ccc(OCCC(=O)Nc2ccc(S(N)(=O)=O)cc2)cc1` here?
The Potency was inconclusive [inhibitor, single point].

Which “activity change, negative = inhibition” value does the source give for `CC(C)Oc1ccc(Cc2cnc(=S)[nH]c2N)cc1` here?
Its value is inactive: -17.5%.

With `Cc1cc(C(=O)Nc2sc3c(c2C#N)CCC(C(C)(C)C)C3)no1` (stereo unspecified) as the compound, how does the “activity change, negative = inhibition” value read?
The value was inactive: -19.3%.

With `COc1ccc(OC)c(C2CC(=O)c3c([nH]c(C(=O)OC(C)C)c3C)C2)c1` (stereo unspecified) as the compound, how does the Potency read?
The Potency was inconclusive [inhibitor, full curve].

With `COC(=O)C1=C(c2cccc(OCc3ccccc3)c2)C[C@@H]2CC[C@H]1N2C(=O)NC1CCN(Cc2ccccc2)CC1` as the compound, how does the Potency read?
Its Potency is active: 10 µM.

For `CCOC(=O)c1c(-c2cccs2)csc1NC(=O)CN1CC(C)OC(C)C1` (stereo unspecified), which Potency is on record?
Its Potency is inconclusive [inhibitor, single point].

For `COc1ccc(OC)c2c1sc(=NC(=O)C(C)C)n2C`, which “activity change, negative = inhibition” value is on record?
The value was inactive: 6.61%.

For `COc1ccc2c(c1)C(=O)CC(c1ccccc1)O2` (stereo unspecified), which “activity change, negative = inhibition” value is on record?
Its value is inactive: -13.2%.

With `Cc1noc(C)c1S(=O)(=O)N1CCCC(C(=O)N2CCc3ccccc3C2)C1` (stereo unspecified) as the compound, how does the Potency read?
Its Potency is inconclusive [inhibitor, single point].

With `COc1ccccc1-c1cc(C(=O)N2CCN(c3ccccc3OC)CC2)no1` as the compound, how does the Potency read?
The Potency was inconclusive [inhibitor, single point].

For `CCCCc1nc(N2CCOCC2)c(C#N)c2c1CCCC2`, which Potency is on record?
Its Potency is inconclusive [inhibitor, partial curve].

Which Potency does the source give for `Cc1nc(N)nc(N)c1CCCc1ccc(Cl)c(Cl)c1` here?
The Potency was active: 3.98 µM.

For `CC1CCC2(CC1)NC(=O)N(CC(=O)Nc1sc3c(c1C(N)=O)CCC3)C2=O` (stereo unspecified), which “activity change, negative = inhibition” value is on record?
The value was inactive: 12.5%.

With `c1ccc(NCc2ccccn2)cc1` as the compound, how does the “activity change, negative = inhibition” value read?
The value was inactive: 24.6%.

With `COc1ccc(NS(=O)(=O)c2cc(NC(=O)[C@H](C)NC(N)=O)ccc2N2CCCC2)cc1` as the compound, how does the Potency read?
Its Potency is inconclusive [inhibitor, partial curve].

With `Cc1c(-c2ccc(Cl)cc2)[n+](=O)c2c(n1[O-])CCCC2` as the compound, how does the “activity change, negative = inhibition” value read?
The value was inactive: 5.91%.

Which “activity change, negative = inhibition” value does the source give for `COc1cc(C(=O)Nn2c(C)nc3ccccc3c2=O)cc(OC)c1OC` here?
The value was inactive: 14.2%.

With `C/C(=N\NC(=O)CNc1ccc(F)cc1)c1cc2ccccc2o1` as the compound, how does the Potency read?
The Potency was inconclusive [inhibitor, single point].

With `COc1cc(OC)cc(C(=O)N2CCCC(c3nc(-c4ccc(C)o4)no3)C2)c1` (stereo unspecified) as the compound, how does the Potency read?
The Potency was inconclusive [inhibitor, full curve].

With `S=C(Nc1ccc(Br)cc1)Nc1ccc2c(c1)OCCO2` as the compound, how does the Potency read?
The Potency was inconclusive [inhibitor, single point].

Which Potency does the source give for `Cc1ccc(NS(=O)(=O)c2cc(C(=O)N3CCc4ccccc4C3)ccc2Cl)cc1` here?
Its Potency is inconclusive [inhibitor, partial curve].

With `Cc1nc(C)c(-c2csc(Nc3ncccc3C)n2)s1` as the compound, how does the Potency read?
The Potency was inconclusive [inhibitor, single point].

For `COc1ccc(N(CC(=O)N/N=C/c2cccc3c2OCCO3)S(=O)(=O)c2ccc(NC(C)=O)cc2)cc1`, which Potency is on record?
Its Potency is inconclusive [inhibitor, partial curve].

For `Cc1cccc2cc(C#N)c(SCC(=O)N3CC(=O)Nc4ccccc43)nc12`, which Potency is on record?
Its Potency is inconclusive [inhibitor, full curve].

For `O=C(CN1C2=NCCCN2c2ccccc21)c1cccc(Br)c1`, which Potency is on record?
Its Potency is inconclusive [inhibitor, partial curve].

For `Cc1ccsc1C(=O)C1CCCN(Cc2cccn2-c2ccc(Cl)cn2)C1` (stereo unspecified), which Potency is on record?
Its Potency is inconclusive [inhibitor, single point].

Which Potency does the source give for `Cc1ccc(C)c(NC(=S)NCCc2ccc(F)cc2)c1` here?
Its Potency is inconclusive [inhibitor, single point].

Source: PubChem BioAssay AID651820 (National Center for Advancing Translational Sciences (NCATS), 2012)
